# Test results from the BET-seq Pho4 binding data (Le et al. 2018).
# This is one part of the list. The energies were worked out here from pooled read counts, against the library average; single values are noisy.
# Molecular target: T1, Pho4 (S. cerevisiae) (UniProt P07270)
# T1 sequence: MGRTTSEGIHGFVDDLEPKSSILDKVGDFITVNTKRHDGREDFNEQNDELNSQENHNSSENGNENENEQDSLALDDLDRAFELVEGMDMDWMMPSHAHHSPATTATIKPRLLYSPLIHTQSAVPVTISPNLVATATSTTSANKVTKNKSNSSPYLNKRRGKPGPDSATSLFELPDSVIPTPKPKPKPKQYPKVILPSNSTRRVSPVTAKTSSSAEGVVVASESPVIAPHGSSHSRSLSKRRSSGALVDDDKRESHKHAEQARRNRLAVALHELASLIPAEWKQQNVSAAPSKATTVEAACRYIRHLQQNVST
# Assay: relative binding free energy (BET-seq); higher = weaker binding
# Conditions: reference: library average
row,Sequence,relative binding free energy
1,GAGGTCACGTGTTTGA,0.15 kcal/mol
2,AGTGTCACGTGTTGTC,-0.05 kcal/mol
3,ACTAGCACGTGTGTGA,-0.04 kcal/mol
4,CTGGTCACGTGCTGTT,0.11 kcal/mol
5,GCGTGCACGTGTTTAT,-0.04 kcal/mol
6,GCTTGCACGTGTTGGA,0.05 kcal/mol
7,CTTGGCACGTGTCGTA,-0.11 kcal/mol
8,ACGGACACGTGTGGGA,0.01 kcal/mol
9,TATTGCACGTGATCTT,0.02 kcal/mol
10,ATAATCACGTGGGACG,0.07 kcal/mol
11,AAGCGCACGTGGTGTG,-0.17 kcal/mol
12,TGTAGCACGTGTCGCG,-0.14 kcal/mol
13,GTTATCACGTGGTTCG,0.25 kcal/mol
14,TTAAACACGTGATGTT,0.07 kcal/mol
15,ATTAGCACGTGATGTT,0.13 kcal/mol
16,GGAATCACGTGTGTAA,0.25 kcal/mol
17,AGATTCACGTGGTCTG,0.16 kcal/mol
18,AGAGGCACGTGTGCTA,-0.15 kcal/mol
19,CTGTGCACGTGGAGTG,0.04 kcal/mol
20,GGTGTCACGTGAGGAG,0.25 kcal/mol
21,TAGCGCACGTGGTATG,-0.2 kcal/mol
22,TGTGGCACGTGAGATG,0.13 kcal/mol
23,TTAACCACGTGTGAGT,0.04 kcal/mol
24,CGTAGCACGTGTGGTT,-0.08 kcal/mol
25,CTGAACACGTGGTAGT,0.04 kcal/mol
26,TCAGGCACGTGTTGTG,-0.07 kcal/mol

row,Sequence,relative binding free energy
1,GTTCTCACGTGGCTGT,0.19 kcal/mol
2,AATGGCACGTGAGGTC,0.05 kcal/mol
3,GCGGTCACGTGATAGT,0.32 kcal/mol
4,GAGTGCACGTGGGCAG,-0.2 kcal/mol
5,TGGGCCACGTGGTTTG,0.02 kcal/mol
6,TGATGCACGTGGCGCT,-0.09 kcal/mol
7,ATCGGCACGTGCAGTT,-0.03 kcal/mol
8,GACCGCACGTGGGGGG,-0.02 kcal/mol
9,TACATCACGTGGTTTA,0.13 kcal/mol
10,TAGTGCACGTGTAAAG,0.01 kcal/mol
11,GTAGTCACGTGCTTTG,0.09 kcal/mol
12,GTCAGCACGTGAGTAG,0.2 kcal/mol
13,TCGTTCACGTGTCAGT,0.34 kcal/mol
14,GAGACCACGTGGGGGT,-0.14 kcal/mol
15,ATGAACACGTGGTGAG,0.05 kcal/mol
16,CATTACACGTGGTAGG,0.01 kcal/mol
17,GCTGTCACGTGATGTA,0.17 kcal/mol
18,AATCGCACGTGGTGGG,-0.05 kcal/mol
19,TTTTTCACGTGACATG,0.45 kcal/mol
20,TCAGGCACGTGTAGAG,-0.1 kcal/mol
21,GTGTGCACGTGCGGAG,-0.14 kcal/mol
22,TCGTACACGTGAAGGA,0.43 kcal/mol
23,GTAATCACGTGGGACG,-0.02 kcal/mol
24,TTGTCCACGTGGGGGC,-0.06 kcal/mol
25,GTATGCACGTGGGTAC,-0.13 kcal/mol
26,TGTTGCACGTGAAAGT,0.15 kcal/mol

row,Sequence,relative binding free energy
1,GTGTGCACGTGTTGGA,0.07 kcal/mol
2,GTGGTCACGTGCTGGG,0.17 kcal/mol
3,GAAATCACGTGTGGTA,0.25 kcal/mol
4,CTGGCCACGTGTAGGT,0 kcal/mol
5,TAATTCACGTGAAGAG,0.44 kcal/mol
6,GTAATCACGTGTCAGG,0.19 kcal/mol
7,AGGGACACGTGGCGAG,-0.07 kcal/mol
8,TAGTCCACGTGGGTAG,-0.09 kcal/mol
9,TGTGGCACGTGCAAAT,-0.08 kcal/mol
10,AACATCACGTGGGGTT,0.03 kcal/mol
11,GATAACACGTGGCGGG,-0.04 kcal/mol
12,AATAGCACGTGTATTT,-0.06 kcal/mol
13,GGTATCACGTGAGGAA,0.44 kcal/mol
14,CAGTGCACGTGGGGCA,-0.21 kcal/mol
15,GTTAGCACGTGAAGTG,0.14 kcal/mol
16,GACATCACGTGGTTTT,0.29 kcal/mol
17,AACATCACGTGTGTTA,0.19 kcal/mol
18,ATTAACACGTGGGTAG,-0.18 kcal/mol
19,GGTTTCACGTGGGCAG,0.26 kcal/mol
20,AGTGTCACGTGATTAG,0.14 kcal/mol
21,ATAAGCACGTGTTTTA,-0.16 kcal/mol
22,TGCAGCACGTGGGGTT,-0.34 kcal/mol
23,AGATGCACGTGTTGAG,0.06 kcal/mol
24,TGTGGCACGTGGCCGA,-0.17 kcal/mol
25,GGTGGCACGTGTCTAA,-0.03 kcal/mol
26,CTTGGCACGTGATGAT,-0.13 kcal/mol

row,Sequence,relative binding free energy
1,GGAGGCACGTGGTCCG,-0.16 kcal/mol
2,TCGGGCACGTGTTAGT,-0.14 kcal/mol
3,GATATCACGTGATAGT,0.26 kcal/mol
4,TTGTACACGTGCATTG,-0.04 kcal/mol
5,GTCGTCACGTGGGTTA,-0.03 kcal/mol
6,CAAGTCACGTGGTTAT,0.12 kcal/mol
7,AAGGTCACGTGTTGCT,0.14 kcal/mol
8,CGGGGCACGTGAAGGG,0.18 kcal/mol
9,AAAGGCACGTGATGTA,-0.04 kcal/mol
10,CTGTTCACGTGTTTAA,0.09 kcal/mol
11,CAGATCACGTGGGTTT,0.06 kcal/mol
12,TGGCTCACGTGGCGTT,0.14 kcal/mol
13,ATTGCCACGTGTGCGG,-0.09 kcal/mol
14,GGGTACACGTGGTATC,0.05 kcal/mol
15,AAGATCACGTGGGAGG,0.05 kcal/mol
16,AGTTGCACGTGTTCGT,0 kcal/mol
17,ATATACACGTGGCTTT,-0.05 kcal/mol
18,AGAAGCACGTGGGCAT,-0.18 kcal/mol
19,GTGGCCACGTGTATTG,0.03 kcal/mol
20,ATGGTCACGTGGAAGA,0.21 kcal/mol
21,GTATACACGTGTAAGG,0.02 kcal/mol
22,ATAGGCACGTGATCTT,-0.08 kcal/mol
23,TTTTTCACGTGGAGAG,0.16 kcal/mol
24,GGTCACACGTGTTAGG,0.11 kcal/mol
25,AGGGACACGTGTAGTC,0.33 kcal/mol
26,TGTTTCACGTGTGAGG,0.25 kcal/mol

row,Sequence,relative binding free energy
1,GAGGGCACGTGAGGGT,0.26 kcal/mol
2,AGTGTCACGTGGTTTA,0.08 kcal/mol
3,CAGGTCACGTGGAGTT,0.24 kcal/mol
4,GCGGGCACGTGATATG,0.06 kcal/mol
5,AATTGCACGTGTTACG,0.05 kcal/mol
6,TTACACACGTGTGGTA,0.01 kcal/mol
7,TGCGTCACGTGAAAGG,0.24 kcal/mol
8,TATCTCACGTGCGGTT,0.21 kcal/mol
9,TGGTCCACGTGCGGTG,-0.07 kcal/mol
10,TGATTCACGTGATGTG,0.39 kcal/mol
11,TTTGGCACGTGCTGCT,-0.23 kcal/mol
12,ACGTGCACGTGGCTGG,-0.21 kcal/mol
13,GGTGACACGTGTTGCA,0.22 kcal/mol
14,CGTCGCACGTGGGGAG,-0.12 kcal/mol
15,TTTGGCACGTGTTTCG,-0.01 kcal/mol
16,TGAGTCACGTGGAGAT,0.1 kcal/mol
17,TTAACCACGTGTGGTA,-0.11 kcal/mol
18,GCAAACACGTGGGGTG,-0.19 kcal/mol
19,TGGTTCACGTGGTAGT,0.25 kcal/mol
20,GGGAACACGTGTCGGT,0.13 kcal/mol
21,TTGGCCACGTGGGTAA,-0.2 kcal/mol
22,TCAGACACGTGTGTGT,-0.07 kcal/mol
23,ATTCTCACGTGGGTTA,0.16 kcal/mol
24,TATTACACGTGTTCTT,0.17 kcal/mol
25,AAGATCACGTGTTTAT,-0.02 kcal/mol
26,TTTTGCACGTGAGCAT,0.12 kcal/mol

row,Sequence,relative binding free energy
1,AGCTGCACGTGGTGCG,-0.22 kcal/mol
2,GACTGCACGTGAGTGT,0.25 kcal/mol
3,CTTTTCACGTGTAATA,0.39 kcal/mol
4,GGTTACACGTGGGTGC,0 kcal/mol
5,GTAGGCACGTGCAGAG,-0.08 kcal/mol
6,TTGCGCACGTGTGGCA,-0.06 kcal/mol
7,TGGTGCACGTGATGTG,0.11 kcal/mol
8,AACATCACGTGTGTGG,0.14 kcal/mol
9,AGTAACACGTGGGTAG,-0.14 kcal/mol
10,TTCATCACGTGTGGTA,0.17 kcal/mol
11,GTACGCACGTGGTTGG,-0.1 kcal/mol
12,TAGTACACGTGTAATG,0.1 kcal/mol
13,ATGAACACGTGATGGT,0.2 kcal/mol
14,TGGTGCACGTGGATGG,0.08 kcal/mol
15,GAAAGCACGTGGTATG,-0.12 kcal/mol
16,TGGCGCACGTGATCTG,0.1 kcal/mol
17,GGTGGCACGTGATAGC,0.01 kcal/mol
18,TCCTGCACGTGGGTAT,-0.11 kcal/mol
19,TAACTCACGTGTGCGG,0.18 kcal/mol
20,GGGCTCACGTGGATTA,0.32 kcal/mol
21,GTAGGCACGTGTGTAT,-0.03 kcal/mol
22,TTGGCCACGTGGAGGC,-0.17 kcal/mol
23,CGGGTCACGTGTCGCG,0.15 kcal/mol
24,ATGTCCACGTGATGGT,0.13 kcal/mol
25,TTATACACGTGTTTCT,-0.14 kcal/mol
26,TGCGTCACGTGGATAT,0.19 kcal/mol

row,Sequence,relative binding free energy
1,TTTATCACGTGCTGCG,0.03 kcal/mol
2,GTAGTCACGTGGACTG,0.28 kcal/mol
3,TTCTTCACGTGGCGCG,0.32 kcal/mol
4,AAGAGCACGTGAGTGG,0.16 kcal/mol
5,AGGCACACGTGGATGT,0.11 kcal/mol
6,CATAGCACGTGTGTGG,-0.02 kcal/mol
7,AAAATCACGTGTTGCA,0.43 kcal/mol
8,TAAGTCACGTGCGGCT,0.06 kcal/mol
9,GTGACCACGTGAGTGG,0.09 kcal/mol
10,TAATGCACGTGGAGTT,0.18 kcal/mol
11,GGATGCACGTGTGGAT,0.16 kcal/mol
12,AATTACACGTGGAGGT,0.26 kcal/mol
13,GATTTCACGTGGCTGG,0.37 kcal/mol
14,TGAGACACGTGGGGGT,-0.05 kcal/mol
15,CTTTTCACGTGTTGTA,0.21 kcal/mol
16,ATATTCACGTGGGAAA,0.18 kcal/mol
17,AAGTGCACGTGGGGCC,-0.12 kcal/mol
18,TTAGACACGTGGTTAG,0.08 kcal/mol
19,TGCGGCACGTGCTGGT,-0.32 kcal/mol
20,TATGTCACGTGGTGTT,-0.04 kcal/mol
21,GTTCTCACGTGTTGTG,0.24 kcal/mol
22,GTGGGCACGTGTCTGA,0.01 kcal/mol
23,TTAGTCACGTGCTTGC,0.13 kcal/mol
24,GGTGTCACGTGGTAAA,0.11 kcal/mol
25,AGGGCCACGTGGATGG,-0.15 kcal/mol
26,TGTAGCACGTGTGAGG,-0.02 kcal/mol

row,Sequence,relative binding free energy
1,AGATGCACGTGGAGCT,0.04 kcal/mol
2,GTAGGCACGTGTGGAT,0.1 kcal/mol
3,TTTGTCACGTGGGTTG,-0.09 kcal/mol
4,CCGGGCACGTGGGGCC,-0.13 kcal/mol
5,GTCTTCACGTGGTAGC,0.32 kcal/mol
6,CTCAGCACGTGTTGGG,-0.02 kcal/mol
7,TCGCACACGTGGTGGG,0.08 kcal/mol
8,TATCGCACGTGGGAGG,-0.12 kcal/mol
9,AGGAACACGTGGGATG,-0.14 kcal/mol
10,TTTGACACGTGAAGTA,0.16 kcal/mol
11,CTCGTCACGTGGTGGT,0.09 kcal/mol
12,TTGTTCACGTGACTTT,0.23 kcal/mol
13,TGTCGCACGTGGTATA,-0.21 kcal/mol
14,CGCTTCACGTGAGGGG,0.38 kcal/mol
15,GTAGGCACGTGGCGCG,-0.1 kcal/mol
16,GGTGCCACGTGAAAGG,0.3 kcal/mol
17,TCTGGCACGTGTCTGG,-0.11 kcal/mol
18,CTGGGCACGTGTTGGC,-0.02 kcal/mol
19,ATATGCACGTGTCAAT,0.03 kcal/mol
20,GAAAGCACGTGATGGG,0.21 kcal/mol
21,TTCTTCACGTGTGATG,0.3 kcal/mol
22,GAGAGCACGTGCTGTG,-0.05 kcal/mol
23,AGAAACACGTGCGTGG,0.03 kcal/mol
24,GTCGGCACGTGGGTTG,-0.04 kcal/mol
25,TAGTGCACGTGGAGTA,-0.09 kcal/mol
26,CCATGCACGTGGGGGG,-0.28 kcal/mol

row,Sequence,relative binding free energy
1,GGTCGCACGTGGCGTA,-0.13 kcal/mol
2,GGAGGCACGTGAGGTA,0.09 kcal/mol
3,TGATGCACGTGGGTAT,-0.11 kcal/mol
4,AATGTCACGTGGTCTA,-0.08 kcal/mol
5,CTGAGCACGTGAGTGG,0.13 kcal/mol
6,CAGGTCACGTGGCTTG,0.05 kcal/mol
7,GTAGTCACGTGGGAAT,0.14 kcal/mol
8,AGAGGCACGTGGGGTA,-0.2 kcal/mol
9,TCATTCACGTGCGGGT,0.3 kcal/mol
10,GTGTTCACGTGATAAG,0.27 kcal/mol
11,TTCTTCACGTGGTGAT,0.29 kcal/mol
12,GTATGCACGTGAGTAG,0.22 kcal/mol
13,GCATGCACGTGAGGTT,0.18 kcal/mol
14,GACGTCACGTGATTGG,0.35 kcal/mol
15,GTTACCACGTGTCTGT,0.11 kcal/mol
16,ATGAGCACGTGAATGT,0.12 kcal/mol
17,TGGGACACGTGATAAT,0.14 kcal/mol
18,ATGAGCACGTGGGGTT,-0.2 kcal/mol
19,GGTGGCACGTGTTATT,-0.01 kcal/mol
20,GTTTACACGTGGTAAT,0.06 kcal/mol
21,TTACACACGTGTATGG,-0.07 kcal/mol
22,CTATGCACGTGGGAAG,-0.11 kcal/mol
